Assay results: the supplement of paper PMC12217912
Some of the results follow. Sequences were assembled here from the parent chain. Values near 0.05 are background.

B1: TEV protease; numbered along this chain (parent)
chain: MGESLFKGPRDYNPISSSICHLTNESDGHTTSLYGIGFGPFIITNKHLFRRNNGTLVVQSLHGVFKVKDTTTLQQHLVDGRDMIIIRMPKDFPPFPQKLKFREPQREERICLVTTNFQTKSMSSMVSDTSCTFPSGDGIFWKHWIQTKDGQCGSPLVSTRDGFIVGIHSASNFTNTNNYFTSVPKNFMELLTNQEAQQWVSGWRLNADSVLWGGHKVFMVKPEEPFQPVKEATQL

Variants of: B1
Assay: raw area under fraction-flipped curve 0-4 h after induction (AUC4h, not background-subtracted), DNA-recorder readout of cleavage of the substrate (dimensionless); higher = more cleavage of the substrate by the protease variant
Details: temperature: 34 °C; time window: 0-4 h after rhamnose induction
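Further: Bxb1 expression induced with 0.2% (w/v) L-rhamnose at OD600 near 0.5, cultures sampled hourly, flipped fraction per protease–substrate barcode pair counted by paired-end Illumina sequencing.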

Variant | area with substrate ENCYFQS | area with substrate ENEYFQS | area with substrate ENHYFQS | area with substrate ENQYFQS | area with substrate ENRYFQS | area with substrate ENTYFQS | area with substrate ENDYFQS | area with substrate ENGYFQS | area with substrate ENSYFQS | area with substrate ENVYFQS | area with substrate ENWYFQS | area with substrate ENIYFQS | area with substrate ENMYFQS | area with substrate ENNYFQS | area with substrate ENPYFQS | area with substrate ENFYFQS | area with substrate ENKYFQS | area with substrate ENYYFQS
A207H | 0.0592 | 0.058 | 0.0638 | 0.0603 | 0.0364 | 0.0703 |  |  |  |  |  |  |  |  |  |  |  | 
Q234A | 0.0653 | 0.0659 | 0.0461 | 0.0555 | 0.0576 | 0.0725 | 0.0587 | 0.0688 | 0.0675 | 0.0756 | 0.0571 |  |  |  |  |  |  | 
Q198M | 0.0629 | 0.0533 | 0.0627 | 0.0596 | 0.051 | 0.0577 | 0.0508 | 0.0812 | 0.0517 |  |  | 0.0942 | 0.0911 | 0.067 | 0.0589 |  |  | 
R50I |  |  |  | 0.0511 |  |  | 0.0776 | 0.0562 | 0.0606 | 0.0772 |  |  | 0.072 |  |  | 0.0787 |  | 
Q146S | 0.0671 |  | 0.0499 | 0.0507 |  | 0.0741 |  |  | 0.0611 |  |  | 0.0956 |  |  | 0.0513 | 0.0651 | 0.0718 | 
S158P | 0.0407 | 0.0474 | 0.0548 | 0.0501 |  | 0.0407 | 0.0565 | 0.0809 |  |  |  | 0.0614 |  | 0.0531 | 0.0372 | 0.0419 | 0.0573 | 
T159D | 0.049 |  |  |  |  |  |  |  |  |  |  |  |  |  |  |  |  | 
K148H | 0.0615 | 0.0624 | 0.0447 | 0.0664 |  | 0.0387 | 0.0566 | 0.0257 | 0.0652 | 0.0599 |  | 0.0833 | 0.077 | 0.0823 |  | 0.0646 |  | 0.0615
V217I | 0.0743 | 0.0663 | 0.0358 | 0.0597 |  |  | 0.0574 | 0.0544 | 0.0506 | 0.084 |  |  | 0.0729 | 0.0734 | 0.0548 |  | 0.041 | 
I145L | 0.08 |  |  | 0.0286 |  |  | 0.047 |  |  | 0.0736 | 0.0058 |  |  | 0.0574 | 0.0581 |  | 0.0581 | 
D161I | 0.0501 | 0.0486 | 0.0469 | 0.0565 | 0.0436 | 0.0534 | 0.0558 | 0.0892 | 0.0235 |  |  | 0.0369 |  |  | 0.0446 | 0.0501 | 0.0531 | 
P225Q | 0.0659 | 0.0598 |  |  | 0.0443 | 0.0637 |  | 0.0657 |  | 0.0816 |  | 0.0985 |  | 0.0659 |  |  |  | 
P228G | 0.0566 | 0.0635 | 0.0856 | 0.0658 |  | 0.0872 | 0.0643 |  | 0.0693 | 0.0869 |  |  |  | 0.08 |  |  |  | 
L211Y | 0.0641 | 0.0784 | 0.0598 | 0.0605 |  | 0.0604 | 0.0591 | 0.0865 | 0.0632 | 0.0872 |  | 0.118 |  | 0.0592 |  |  | 0.0694 | 
L211R | 0.073 |  |  |  | 0.089 |  | 0.0478 |  | 0.0564 |  | 0.064 |  |  |  | 0.0668 | 0.0561 |  | 
K230H | 0.069 | 0.0619 | 0.0546 | 0.0645 | 0.0605 | 0.0431 | 0.0582 | 0.0591 | 0.0623 |  |  |  | 0.0918 | 0.0682 | 0.0594 | 0.0617 | 0.0501 | 
V165W | 0.0276 | 0.0542 | 0.0495 | 0.0537 | 0.0498 | 0.0601 | 0.0623 |  |  | 0.0476 |  | 0.0695 |  | 0.0395 | 0.0661 |  |  | 

Variant | area with substrate ENCYFQS | area with substrate ENEYFQS | area with substrate ENHYFQS | area with substrate ENQYFQS | area with substrate ENRYFQS | area with substrate ENTYFQS | area with substrate ENDYFQS | area with substrate ENGYFQS | area with substrate ENSYFQS | area with substrate ENVYFQS | area with substrate ENWYFQS | area with substrate ENIYFQS | area with substrate ENMYFQS | area with substrate ENNYFQS | area with substrate ENPYFQS | area with substrate ENFYFQS | area with substrate ENKYFQS | area with substrate ENYYFQS
G150I | 0.0538 | 0.059 | 0.0615 | 0.0606 | 0.0577 | 0.0635 | 0.0634 | 0.0515 | 0.0696 | 0.0668 | 0.0567 | 0.0616 |  | 0.0607 | 0.0591 | 0.054 | 0.0663 | 0.0543
T147A | 0.0674 | 0.0767 | 0.0741 | 0.0688 | 0.0499 | 0.0624 | 0.0825 |  | 0.04 | 0.0439 |  |  | 0.0778 | 0.096 |  | 0.0547 |  | 0.053
T147K | 0.0606 | 0.0633 |  | 0.0686 |  |  |  |  | 0.0693 | 0.0817 |  | 0.0623 | 0.0568 |  | 0.0667 |  |  | 
N186G | 0.0721 |  |  | 0.0474 |  |  | 0.0515 |  |  |  |  |  |  |  |  | 0.065 |  | 
H62L |  |  | 0.0485 |  | 0.0595 | 0.0725 | 0.0489 |  | 0.0702 | 0.0645 |  |  | 0.0639 | 0.058 | 0.0778 | 0.0547 |  | 
P9I |  | 0.0749 | 0.0271 | 0.0508 | 0.056 | 0.0843 | 0.0436 | 0.0552 | 0.0591 |  |  |  | 0.123 |  |  | 0.0478 |  | 0.0597
F173Y | 0.0627 | 0.07 |  | 0.0532 |  | 0.0731 |  |  | 0.0546 | 0.0571 | 0.0762 |  | 0.0641 | 0.0588 | 0.046 | 0.056 |  | 0.0555
S18H |  | 0.0673 |  |  | 0.0634 | 0.0486 | 0.0763 |  | 0.062 | 0.0782 | 0.0518 |  |  | 0.0598 | 0.0497 | 0.0624 |  | 
V229T | 0.0548 |  |  | 0.0658 |  | 0.0579 | 0.0634 |  | 0.0633 |  | 0.0411 | 0.102 |  |  |  |  |  | 
K221G | 0.0614 | 0.0645 |  | 0.0455 |  | 0.0717 |  | 0.0645 | 0.118 |  |  |  | 0.0727 |  | 0.0558 | 0.0619 | 0.04 | 0.0608
K68P |  | 0.0648 | 0.0593 | 0.0522 | 0.0587 |  | 0.0591 |  | 0.0466 | 0.0823 |  | 0.129 |  | 0.0667 |  | 0.0557 |  | 0.0547
S171Q | 0.0653 |  | 0.079 |  |  | 0.0574 |  | 0.0703 | 0.0806 |  |  | 0.0732 | 0.0794 |  | 0.0605 | 0.0747 | 0.0517 | 
F218W | 0.0711 | 0.063 |  | 0.0646 | 0.059 |  | 0.0609 | 0.044 | 0.0574 |  |  |  | 0.0572 |  | 0.0729 |  |  | 0.0587
W203M | 0.0507 | 0.074 | 0.0561 | 0.0443 | 0.059 | 0.0456 |  | 0.0617 | 0.0564 | 0.0524 |  | 0.0651 |  | 0.0484 |  |  |  | 0.0688
N175I | 0.0659 |  |  | 0.0492 | 0.0637 |  | 0.067 | 0.0692 |  | 0.0622 |  | 0.0731 | 0.0602 | 0.0706 |  | 0.0723 | 0.0632 | 
N178G | 0.0711 |  | 0.0624 | 0.0513 | 0.0609 | 0.0623 | 0.043 | 0.0634 | 0.0524 |  |  |  |  |  | 0.053 |  |  | 
N178E | 0.0708 |  |  |  | 0.0627 |  |  |  |  |  |  |  |  | 0.0661 |  |  | 0.0604 | 
